Experimental data taken from the RNAGym collection of RNA variant scans (doi:10.7554/elife.90254).
Read counts are not given, so values of variants with three or more changes are uncertain.

B1: OR4K15 (parent)
chain: GUUAACGGUCAUAGGCCAUGGAAACUAGGAGCACCAUUUCGCUGCCAGUGAAGAAAUGAACAAAGAAAAUCUGGGCCAGGCAGGCAUCAAAAGAAAUAGUCUUGCGCUCAACCAGAAAGUCUGUAAUCAUUUUAAGGGUA

Variants of: B1
Test: self-cleavage, relative activity (ratio to wild type); higher = more cleavage; in vitro, sequencing; the parent is a self-cleaving ribozyme

Variant | self-cleavage
GUUAACGGUCAUAGGCCAUGGAGACUAGGAGCACCAUUUCGCAGCCAGUGAAGAAAUGAACAAAGAAAACCUGGGCCAGGCAGGCAUCAAAAGAAAUAGUCUUGCGCUCAACCAGAAAGUCUGUAAUCAUUCUAAGGGUA [A23G U43A U70C U132C] | 0.97
GUUAACGGUCAUAGGCCAUGGAGACUAGGAGCACCAUUACGCUGCCAGUGAAGAAAUGAACAAAGAAAAUCUGGGCCAGGCAGGCACCAAAAGAAAUAGUCUUGCGCUCAACCAGAAAGUCUGUAAUCAUUUUAAGGGUA [A23G U39A U87C] | 1.25
GUUAACGGUCAUAGGCCAUGGAGACUAGGAGCACCAUUUCGCUGCCAGCGAAGAAAUGAACAAAGAAAAUCUGGGCCAGGCAGGCAGCAAAAGAAAUAGUCUUGCGCUCAACCAGAAAGUCUGUAAUCAUUUUAAGGGUA [A23G U49C U87G] | 0.4
GUUAACGGUCAUAGGCCAUGGAGACUAGGAGCACCAUUUCGCUGCCAGCGAAGAAAUGAACAAAGAAAAUCUGGGCCAGGCGGGCAUCAAAAGAAAUAGUCUUGCGCUCAACCAGAAAGUCUGUAAUCAUUUUAAGGGUA [A23G U49C A82G] | 0.57
GUUAACGGUCAUAGGCCAUGGAGACUAGGAGCACCAUUCCGCUGCCGGUGAAGAAAUGAACAAAGGAAAUCUGGGCCAGGCAGGCAUCAAAAGAAAUAGUCUUGCGCUCAACCAGAAAGUCUGUAAUCAUUUUAAGGGUA [A23G U39C A47G A66G] | 1.04
GUUAACGGUCAUAGGCCAUGGAGACUAGGAGCACCAUUUCGCCGCCAGUGAAGAAAUGAACAAAGAAAACCUGGGCCAGGCAGGCAUCAAAAGAAAUAGUCUUGCGCCCAACCAGAAAGUCUGUAAUCAUUUUAAGGGAA [A23G U43C U70C U108C U139A] | 0.02
GUUAACGGUCAUAGGCCAUGGAGACUAGGAGCACCAUUUCGCUGCCAGCGAAGAAAUGAGCAAAGAAAAUCUGGGCCAAGCAGGCAUCAAAAGGAAUAGUCUUGCGCUCAACCAGAAAGUCUGUAAUCAUUUUAAGGGUA [A23G U49C A60G G79A A94G] | 0.09
GUUAACGGUCAUAGGCCAUGGAGACUAGGAGCACCAUUCCGCUGCCAGUGAAGAAAUGAACAAAGAAAAUCUGGGCCAGGCAGGCAUCAAAAGAAAUAGUCGUGCGCUCAACCAGAAAGUCUGUGAUCAUUUUAAGGGUA [A23G U39C U102G A125G] | 0.26
GUUAACGGUCAUAGGCCAUGGAGACUAGGAGCACCAUUUCGCCGCCAGUGAAGAGAUGAACAAAGAAAACCUGGGCCAGGCAGGCAUCAAAAGAAAUAGUCUUGCGCUCAACCAGAAAGUCUGUAAUCAUUUUAAGGGUA [A23G U43C A55G U70C] | 0.71
GUUAACGGUCAUAGGCCAUGGAGACUAGGAGCACCAUUUCGCCGCCAGUGAAGAAAUGAACAAAGAAAAUCUGGGCCAGGCAGGCAUCAAAAGAAAUAGUCUUGCGCUCAACCAGAAGGUCUGUAAUCAUUUUAAGGGUA [A23G U43C A118G] | 1.7
GUUAACGGUCAUAGGCCAUGGAGACUAGGAGCACCAUUUCGCCGCCAGUGAAGAAAUGAACAAAGAAAAUCUGGGCCAGGCAGGCAUCAAAAGAAAUAGUCUUGCGCUCAACCAGAAAGUCUGUAAUCAUCUUAAGGGUA [A23G U43C U131C] | 0.52
GUUAACGGUCAUAGGCCAUGGAGACUAGGAGCACCAUUUCGCUGCCAGUGAAGAAACGAACAAAGAAAAUCUGGGCCAGGCGGGCAUCAAAAGAAAUAGUCUUGCGCUCAACCAGAGAGUCUGUAAUCAUUUUAAGGGUA [A23G U57C A82G A117G] | 0.26
GUUAACGGUCAUAGGCCAUGGAGACUAGGAGCACCAUUCCGCUGCCAGUGAAGUAAUGAGCAAAGAAAAUCUGGGCUAGGCAGGCAUCAAAAGAAAUAGUCUUGCGCUCAACCAGAAAGUCUGUAAUCAUUUCAAGGGUA [A23G U39C A54U A60G C77U U133C] | 0.97
GUUAACGGUCAUAGGCCAUGGAGACUAGGAGCACCAUUUCGCUGCCAGUGAAGAAAGGAACAAAGAAAACCUGGGCCAGGCAGGCAUCAAAAGAAAUGGUCUUGCGCUCAACCAGAAAGUCUGUAAUCAUUUUAAGGGUA [A23G U57G U70C A98G] | 0.16
GUUAACGGUCAUAGGCCAUGGAGACUAGGAGCACCAUUUCGCUGCCAGUGAAGAAACGAACAAAGAAAAUCUGGGCCAGGCAGGCAUCAAAAGAAGUAGUCUUGCGCUCAACCAGAAAGUCUGUAAUCAUUUUAAGGGUA [A23G U57C A96G] | 0.84
GUUAACGGUCAUAGGCCAUGGAGACUAGGAGCACCAUUUCGCAGCCAGUGAAGAAAUGAACAGAGAAAAUCUGGGCCAGGCAGGCAUCAAAAGAAAUAGUCUUGCGCUCAACCAGAAAGUCCGUAAUCAUUUUAAGGGUA [A23G U43A A63G U122C] | 0.93
GUUAACGGUCAUAGGCCAUGGAGACUAGGAGCACCAUUCCGCUGCCAGUGAAGAAAUGAACAAAGGAAAUCUGGGCCAGGCAGGCAUCAAAAGAAAUAGUCUUGCGCUCAACCAGAAAGUCUGUAAUCAUUUUAAGGGUA [A23G U39C A66G] | 1.38
GUUAACGGUCAUAGGCCAUGGAGACUAGGAGCACCAUUCCGCUGCCAGUGAAGAAAUGAACAAAGAAAAUCUGGGCCAGGCGGGCAUCAAAAGAAGUAGUCUUGCGCUCAACCAGAAAGUCUGUAAUCAUUUUAAGGGUA [A23G U39C A82G A96G] | 0.25
GUUAACGGUCAUAGGCCAUGGAGACUAGGAGCACCAUUUCGCUGCCAGCGAAGAAAUGAACAAAGAAAAUCUGGGCCAGGCAGGUAUCAAAAGAAAUAGUCUUGCGCUCAACCAGAAAGUCUGUAAUCAUUUUAAGGGUA [A23G U49C C85U] | 1.67
GUUAACGGUCAUAGGCCAUGGAGACUAGGAGCACCAUUCCGCUGCCAGUGAGGAAAUGAACAAAGAAAAUCUGGGCCAGGCAGGCGUCAAAAGAAAUAGUCUUGCGCUCAACCAGAAGGUCUGUAAUCAUUCUAAGGGUA [A23G U39C A52G A86G A118G U132C] | 0.76
GUUAACGGUCAUAGGCCAUGGAGACUAGGAGCACCAUUUCGCCGCCAGUGAAGAAAUGGACAAAGAAAAUCUGGGCCAGGCAGGCAUCAAAAGAAAUAGUCUUGCGCUCAACCAGGAAGUCUGUAACCAUUUUAAGGGUA [A23G U43C A59G A116G U127C] | 0.57
